Measurements: PubChem BioAssay AID485294 (National Center for Advancing Translational Sciences (NCATS), 2010)
The campaign covered roughly 370,000 compounds. About 150 (0.041%) were called active. Inconclusive results, whose numbers are uncertain, are shown with a selection of clear calls. Calls follow the shape of the dose curve; as a rule, active = well fitted inhibition curve with a large enough effect; inconclusive = small, poorly fitted or top-dose-only effect; inactive = flat fitted curve, though single readings scatter. Potencies of inconclusive entries are left out as doubtful fits.

These molecules were tested against Beta-lactamase (Escherichia coli (strain K12)) (UniProt P00811) (assay: qHTS Inhibitors of AmpC Beta-Lactamase (assay with detergent)). Conditions: AmpC hydrolysis of nitrocefin, absorbance 480 nm, 0.01% Triton; activity change, negative = inhibition: at 114 µM (top of the series).
UniProt P00811, sequence (P00811 whole entry, looked up): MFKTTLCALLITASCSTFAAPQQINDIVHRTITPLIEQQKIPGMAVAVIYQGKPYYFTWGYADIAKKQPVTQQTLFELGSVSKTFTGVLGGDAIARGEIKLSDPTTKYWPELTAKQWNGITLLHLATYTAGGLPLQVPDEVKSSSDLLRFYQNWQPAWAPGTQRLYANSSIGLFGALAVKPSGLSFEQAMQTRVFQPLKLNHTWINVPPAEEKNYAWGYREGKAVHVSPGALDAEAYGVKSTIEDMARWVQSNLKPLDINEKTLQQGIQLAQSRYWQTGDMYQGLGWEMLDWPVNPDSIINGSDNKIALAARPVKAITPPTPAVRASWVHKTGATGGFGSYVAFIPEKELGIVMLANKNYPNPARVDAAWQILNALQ
Summary of the method: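 AmpC (5.3 nM in the dispensed reagent) in 20 mM phosphate pH 7.0 with 0.01% (detergent screen) or 0.0001% Triton X-100 was preincubated with compounds for 15 min at room temperature. Nitrocefin was then added from an 800 uM solution, and hydrolysis was followed at 480 nm.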
Also: nearly all actives have a fitted effect of over 25% in size.
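For activity change, negative = inhibition in this document: 0% = no-compound wells and -100% = no-enzyme wells.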
Potency is read from the fitted curve at half-maximal effect; tags tell the direction and shape of the fitted curve.

For `CCN(C(=O)CCN1C(=O)c2ccccc2S1(=O)=O)c1ccccc1`, which Potency is on record?
Its Potency is inconclusive [inhibitor, full curve].

Which “activity change, negative = inhibition” value does the source give for `CS(=O)(=O)N(CC(N)=O)c1cccc(Br)c1` here?
The value was inactive: -5.21%.

With `Cn1cc(C[C@H](C(=O)O)N2C(=O)c3ccc(C(=O)O)cc3C2=O)c2ccccc21` as the molecule, how does the Potency read?
Its Potency is inconclusive [inhibitor, full curve, poor fit].

For `Cc1ccc(S(=O)(=O)NCCC(=O)NCc2ccc(Cl)cc2)cc1C`, which Potency is on record?
Its Potency is inconclusive [inhibitor, full curve, poor fit].

For `C=CCNC(=O)C(=O)c1cccn1-c1ccsc1C(=O)OC`, which Potency is on record?
The Potency was inconclusive [inhibitor, full curve, poor fit].

How did the “activity change, negative = inhibition” value turn out when `O=C(/C=C/NCc1cccnc1)c1ccc(-c2ccccc2)cc1` was run?
Its value is inactive: -12.2%.

How did the “activity change, negative = inhibition” value turn out when `CCn1c(COc2ccc3c(c2)CCCC3)nnc1SCC(=O)Nc1ccc(C(=O)OC)cc1` was run?
The value was inactive: -2.4%.

`O=c1c2cnn(-c3ccccc3)c2ncn1Cc1cccnc1` was tested. Which Potency did it give?
Its Potency is inconclusive [inhibitor, partial curve].

With `Cc1ccc(-c2cnc(C3CC3)o2)cc1S(=O)(=O)Nc1cccc(C#N)c1` as the molecule, how does the Potency read?
Its Potency is inconclusive [inhibitor, partial curve].

With `COc1cc2c(cc1NC(=O)COC(=O)C1CC(=O)N(Cc3ccco3)C1)oc1ccccc12` (configuration not stated) as the molecule, how does the Potency read?
The Potency was inconclusive [inhibitor, full curve].

`CC(C)(C)C(=O)Nc1cccc(C(=O)Nc2cc(C(=O)O)cc(C(=O)O)c2)c1` was tested. Which Potency did it give?
Its Potency is inconclusive [inhibitor, single point].

`Cc1ccc(S(=O)(=O)Nc2ccccn2)cc1[N+](=O)[O-]` was tested. Which Potency did it give?
Its Potency is inconclusive [inhibitor, full curve, poor fit].

Which “activity change, negative = inhibition” value does the source give for `c1ccc(CCCCN2C(Nc3ccccc3)=NC[C@@H]2Cc2ccccc2)cc1` here?
The value was inactive: -3.51%.

With `COc1ccc(/C=C2\SC(=N)N(c3ccc(F)cc3)C2=O)cc1OC` as the molecule, how does the Potency read?
Its Potency is inconclusive [inhibitor, single point].

For `Cc1ccc(NC(=O)Cn2c(=O)n(CCC(=O)N3CCc4ccccc4C3)c(=O)c3ccccc32)c(C)c1`, which “activity change, negative = inhibition” value is on record?
The value was inactive: 2.02%.

`COc1ccc(/C=C/C(=O)N(CCC(N)=O)c2ccccc2)cc1S(=O)(=O)N1CCOCC1` was tested. Which Potency did it give?
Its Potency is inconclusive [inhibitor, full curve, poor fit].

For `COc1ccc(-n2nc(C(=O)NCCc3ccc(Cl)cc3)c3c4ccccc4n(C)c3c2=O)cc1`, which “activity change, negative = inhibition” value is on record?
Its value is inactive: -0.113%.

How did the Potency turn out when `O=C1OC(c2ccccc2)=N/C1=C\C=C\c1ccccc1[N+](=O)[O-]` was run?
Its Potency is inconclusive [inhibitor, partial curve, poor fit].

With `CCOC(=O)c1c(NC(=O)c2ccn(CC)n2)sc2c1CCC2` as the molecule, how does the “activity change, negative = inhibition” value read?
Its value is inactive: -5.78%.

Which Potency does the source give for `CCOc1ccc(N2Cc3ncccc3C2=O)cc1` here?
The Potency was inconclusive [inhibitor, full curve, poor fit].

For `O=C(CCCn1c(=S)[nH]c2cc3c(cc2c1=O)OCO3)NCc1ccco1`, which Potency is on record?
Its Potency is inconclusive [inhibitor, single point].

For `Cc1ccc(S(=O)(=O)N2CCC(C(=O)OCC(=O)NCc3ccco3)CC2)cc1C`, which Potency is on record?
Its Potency is inconclusive [inhibitor, full curve].

`O=C(NC1CCCC1)C(c1cccs1)N(C(=O)c1ccno1)c1ccccc1` (configuration not stated) was tested. Which Potency did it give?
The Potency was inconclusive [inhibitor, full curve, poor fit].

Which Potency does the source give for `Cc1ccc(S(=O)(=O)N(Cc2ccc([N+](=O)[O-])cc2)C(=O)N2CCN(C)CC2)cc1` here?
The Potency was inconclusive [inhibitor, full curve, poor fit].

With `O=[N+]([O-])c1ccccc1S(=O)(=O)N(CC1CO1)c1ccccc1` (configuration not stated) as the molecule, how does the “activity change, negative = inhibition” value read?
The value was inactive: -6.24%.

How did the Potency turn out when `CC(=O)Nc1ccccc1C(=O)C(=O)Nc1cccc(C(=O)NCc2ccc(C)cc2)c1` was run?
Its Potency is inconclusive [inhibitor, full curve, poor fit].

Which Potency does the source give for `O=c1[nH][nH]cc1C=Nc1ccc(Oc2ccccc2)cc1` here?
Its Potency is inconclusive [inhibitor, full curve].

`Cc1ccc(C2N(c3cccc(Cl)c3)C(=O)C3CCCN32)o1` (configuration not stated) was tested. Which Potency did it give?
Its Potency is inconclusive [inhibitor, full curve].

How did the “activity change, negative = inhibition” value turn out when `CCC1CN(C(=O)N2CCC(C(=O)NCCCc3ccccc3)CC2)c2cc(C)ccc2O1` (configuration not stated) was run?
Its value is inactive: 21.1%.

With `CCCN(CCC)Cc1c(C(=O)N/N=C/c2cccs2)nnn1-c1nonc1N` as the molecule, how does the Potency read?
Its Potency is inconclusive [inhibitor, full curve, poor fit].

For `COc1cc(C(=O)Oc2cc(N)n(S(=O)(=O)c3ccc(F)cc3)n2)cc(OC)c1OC`, which Potency is on record?
The Potency was inconclusive [inhibitor, full curve, poor fit].

For `Nn1c(Cc2cccc3ccccc23)nnc1SC1CCOC1=O` (configuration not stated), which Potency is on record?
The Potency was inconclusive [inhibitor, full curve, poor fit].

Which Potency does the source give for `O=C(Cn1ncc2c1-c1ccccc1OC2)Nc1cccc(Cl)c1` here?
The Potency was inconclusive [inhibitor, partial curve, poor fit].

Which “activity change, negative = inhibition” value does the source give for `Cc1ccccc1NC(=O)Cn1c(=O)n(CCC(=O)N2CCc3ccccc3C2)c(=O)c2ccccc21` here?
The value was inactive: 22%.

How did the “activity change, negative = inhibition” value turn out when `COc1ccc(N2CCN(S(=O)(=O)c3c(C)noc3/C=C/N(C)C)CC2)cc1` was run?
The value was inactive: 0.852%.

For `CN1C2CCC1/C(=C/c1ccccn1)C(=O)/C2=C\c1ccccn1`, which Potency is on record?
The Potency was inconclusive [inhibitor, single point].

For `CCC(C)(C)n1nnnc1CN(Cc1ccc(Cl)cc1)Cc1ccco1`, which “activity change, negative = inhibition” value is on record?
Its value is inactive: -2.36%.

How did the “activity change, negative = inhibition” value turn out when `COc1ccc(/C=C/C(=O)c2ccc(OC)cc2OC)c(OC)c1` was run?
Its value is inactive: 6.37%.

`CCOc1ccc(NC(=O)CN(C)C(=O)c2c(C)nn(-c3ccc(F)cc3)c2Cl)cc1OCC` was tested. Which “activity change, negative = inhibition” value did it give?
Its value is inactive: -12.2%.

`CN(C)c1ccc(-c2sc(Nc3ccccc3)n[n+]2-c2ccc(F)cc2)cc1` was tested. Which “activity change, negative = inhibition” value did it give?
Its value is inactive: 0.242%.

For `O=[N+]([O-])c1ccc(O)c(-c2nc(-c3ccccc3)c(-c3cccs3)[nH]2)c1`, which Potency is on record?
Its Potency is inconclusive [inhibitor, partial curve, poor fit].

`CCC(C(=O)NCCCN1CCOCC1)n1c2ccccc2c2nc(=O)cc(C)n21` (configuration not stated) was tested. Which Potency did it give?
The Potency was inconclusive [inhibitor, full curve, poor fit].
